The list shows a part of the results. The list includes weakly bound sequences.
The sequences below were run against T1, MBP-FoxP3dN (UniProt Q99JB6) (assay: PD-seq (MBP pull-down with sequencing)). Settings: 20 mM Tris-HCl pH 7.5, 100 mM NaCl, 1.5 mM MgCl2, 0.4 uM protein, 0.1 uM dsDNA library, 30 min, room temperature, amylose pull-down; high values mean tight binding; double strand, one strand shown.
T1 sequence: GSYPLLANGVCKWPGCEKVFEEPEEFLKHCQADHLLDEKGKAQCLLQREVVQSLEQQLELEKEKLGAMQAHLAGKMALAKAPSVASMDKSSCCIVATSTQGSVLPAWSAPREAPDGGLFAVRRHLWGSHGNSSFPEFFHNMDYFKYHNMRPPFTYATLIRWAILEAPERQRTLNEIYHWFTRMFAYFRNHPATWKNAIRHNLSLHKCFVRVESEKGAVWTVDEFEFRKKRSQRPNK

Sequence | binding signal (RPM ratio (pull-down/input))
GATGATTGTTCTCCCAGCTGATGAATTTTGCGAATCGAGTAAACAAATTTTCCTAATCTTTCTGTTCAAGCGCCATCTAC | 0.413
GATGATTGTTCTCCCAGCTGATGAATTGCGTCAATCGAGTAAACAAATTTTCCTAATCTTTCTGTTCAAGCGCCATCTAC | 0.903
GATGATTGTTCTCCCAGCTGATGAATTCCGTGCATCGAGTAAACAAATTTTCCTAATCTTTCTGTTCAAGCGCCATCTAC | 1.16
GATGATTGTTCTCCCAGCTGATGAATTATCGGGGTCGAGTAAACAAATTTTCCTAATCTTTCTGTTCAAGCGCCATCTAC | 0.238
GATGATTGTTCTCCCAGCTGATGAATTACAGGGCTCGAGTAAACAAATTTTCCTAATCTTTCTGTTCAAGCGCCATCTAC | 0.293
GATGATTGTTCTCCCAGCTGATGAATTTCATATGTCGAGTAAACAAATTTTCCTAATCTTTCTGTTCAAGCGCCATCTAC | 0.754
GATGATTGTTCTCCCAGCTGATGAATTTTCGAGATCGAGTAAACAAATTTTCCTAATCTTTCTGTTCAAGCGCCATCTAC | 0.235
GATGATTGTTCTCCCAGCTGATGAATTTAACAGCTCGAGTAAACAAATTTTCCTAATCTTTCTGTTCAAGCGCCATCTAC | 0.369
GATGATTGTTCTCCCAGCTGATGAATTGCCGGCTTCGAGTAAACAAATTTTCCTAATCTTTCTGTTCAAGCGCCATCTAC | 0.496
GATGATTGTTCTCCCAGCTGATGAATTTGCTACGTCGAGTAAACAAATTTTCCTAATCTTTCTGTTCAAGCGCCATCTAC | 0.807
GATGATTGTTCTCCCAGCTGATGAATTGCATTCGTCGAGTAAACAAATTTTCCTAATCTTTCTGTTCAAGCGCCATCTAC | 3.88
GATGATTGTTCTCCCAGCTGATGAATTGCACAGGTCGAGTAAACAAATTTTCCTAATCTTTCTGTTCAAGCGCCATCTAC | 0.57
GATGATTGTTCTCCCAGCTGATGAATTTTTTTAATCGAGTAAACAAATTTTCCTAATCTTTCTGTTCAAGCGCCATCTAC | 0.188
GATGATTGTTCTCCCAGCTGATGAATTGTGAAGCTCGAGTAAACAAATTTTCCTAATCTTTCTGTTCAAGCGCCATCTAC | 0.447
GATGATTGTTCTCCCAGCTGATGAATTGCGAGCCTCGAGTAAACAAATTTTCCTAATCTTTCTGTTCAAGCGCCATCTAC | 0.895
GATGATTGTTCTCCCAGCTGATGAATTGCGACCATCGAGTAAACAAATTTTCCTAATCTTTCTGTTCAAGCGCCATCTAC | 1.11
GATGATTGTTCTCCCAGCTGATGAATTACGTCTGTCGAGTAAACAAATTTTCCTAATCTTTCTGTTCAAGCGCCATCTAC | 0.636
GATGATTGTTCTCCCAGCTGATGAATTCCCCTTGTCGAGTAAACAAATTTTCCTAATCTTTCTGTTCAAGCGCCATCTAC | 0.259
GATGATTGTTCTCCCAGCTGATGAATTAGTTCATTCGAGTAAACAAATTTTCCTAATCTTTCTGTTCAAGCGCCATCTAC | 0.471
GATGATTGTTCTCCCAGCTGATGAATTTGGTAGGTCGAGTAAACAAATTTTCCTAATCTTTCTGTTCAAGCGCCATCTAC | 0.705
GATGATTGTTCTCCCAGCTGATGAATTATATGTATCGAGTAAACAAATTTTCCTAATCTTTCTGTTCAAGCGCCATCTAC | 2.22

Sequence | binding signal (RPM ratio (pull-down/input))
GATGATTGTTCTCCCAGCTGATGAATTTTGCTACTCGAGTAAACAAATTTTCCTAATCTTTCTGTTCAAGCGCCATCTAC | 2.59
GATGATTGTTCTCCCAGCTGATGAATTGCCCCACTCGAGTAAACAAATTTTCCTAATCTTTCTGTTCAAGCGCCATCTAC | 0.519
GATGATTGTTCTCCCAGCTGATGAATTTGGTTCTTCGAGTAAACAAATTTTCCTAATCTTTCTGTTCAAGCGCCATCTAC | 1.37
GATGATTGTTCTCCCAGCTGATGAATTCACGGGTTCGAGTAAACAAATTTTCCTAATCTTTCTGTTCAAGCGCCATCTAC | 0.299
GATGATTGTTCTCCCAGCTGATGAATTGGTTGCATCGAGTAAACAAATTTTCCTAATCTTTCTGTTCAAGCGCCATCTAC | 2.53
GATGATTGTTCTCCCAGCTGATGAATTGGGGCATTCGAGTAAACAAATTTTCCTAATCTTTCTGTTCAAGCGCCATCTAC | 4.3
GATGATTGTTCTCCCAGCTGATGAATTGCCACGTTCGAGTAAACAAATTTTCCTAATCTTTCTGTTCAAGCGCCATCTAC | 0.841
GATGATTGTTCTCCCAGCTGATGAATTACACTTTTCGAGTAAACAAATTTTCCTAATCTTTCTGTTCAAGCGCCATCTAC | 0.622
GATGATTGTTCTCCCAGCTGATGAATTTTGGGTCTCGAGTAAACAAATTTTCCTAATCTTTCTGTTCAAGCGCCATCTAC | 0.715
GATGATTGTTCTCCCAGCTGATGAATTACCGGCGTCGAGTAAACAAATTTTCCTAATCTTTCTGTTCAAGCGCCATCTAC | 0.452
GATGATTGTTCTCCCAGCTGATGAATTGGGCATGTCGAGTAAACAAATTTTCCTAATCTTTCTGTTCAAGCGCCATCTAC | 3.93
GATGATTGTTCTCCCAGCTGATGAATTGTCGACTTCGAGTAAACAAATTTTCCTAATCTTTCTGTTCAAGCGCCATCTAC | 0.569
GATGATTGTTCTCCCAGCTGATGAATTACCTGAATCGAGTAAACAAATTTTCCTAATCTTTCTGTTCAAGCGCCATCTAC | 0.246
GATGATTGTTCTCCCAGCTGATGAATTCGTGATATCGAGTAAACAAATTTTCCTAATCTTTCTGTTCAAGCGCCATCTAC | 0.591
GATGATTGTTCTCCCAGCTGATGAATTCACACTCTCGAGTAAACAAATTTTCCTAATCTTTCTGTTCAAGCGCCATCTAC | 0.447
GATGATTGTTCTCCCAGCTGATGAATTAATGGTATCGAGTAAACAAATTTTCCTAATCTTTCTGTTCAAGCGCCATCTAC | 0.813
GATGATTGTTCTCCCAGCTGATGAATTAGCTTGATCGAGTAAACAAATTTTCCTAATCTTTCTGTTCAAGCGCCATCTAC | 0.764
GATGATTGTTCTCCCAGCTGATGAATTCCACCAATCGAGTAAACAAATTTTCCTAATCTTTCTGTTCAAGCGCCATCTAC | 0.304
GATGATTGTTCTCCCAGCTGATGAATTATACTTCTCGAGTAAACAAATTTTCCTAATCTTTCTGTTCAAGCGCCATCTAC | 0.492
GATGATTGTTCTCCCAGCTGATGAATTTGATCTATCGAGTAAACAAATTTTCCTAATCTTTCTGTTCAAGCGCCATCTAC | 0.475
GATGATTGTTCTCCCAGCTGATGAATTGGTAAATTCGAGTAAACAAATTTTCCTAATCTTTCTGTTCAAGCGCCATCTAC | 0.569

Sequence | binding signal (RPM ratio (pull-down/input))
GATGATTGTTCTCCCAGCTGATGAATTCGGGTATTCGAGTAAACAAATTTTCCTAATCTTTCTGTTCAAGCGCCATCTAC | 0.921
GATGATTGTTCTCCCAGCTGATGAATTGCAGCGTTCGAGTAAACAAATTTTCCTAATCTTTCTGTTCAAGCGCCATCTAC | 1.6
GATGATTGTTCTCCCAGCTGATGAATTGAATGACTCGAGTAAACAAATTTTCCTAATCTTTCTGTTCAAGCGCCATCTAC | 0.545
GATGATTGTTCTCCCAGCTGATGAATTACGGCGATCGAGTAAACAAATTTTCCTAATCTTTCTGTTCAAGCGCCATCTAC | 0.513
GATGATTGTTCTCCCAGCTGATGAATTCGGCCGCTCGAGTAAACAAATTTTCCTAATCTTTCTGTTCAAGCGCCATCTAC | 1.06
GATGATTGTTCTCCCAGCTGATGAATTAATAGGCTCGAGTAAACAAATTTTCCTAATCTTTCTGTTCAAGCGCCATCTAC | 0.372
GATGATTGTTCTCCCAGCTGATGAATTGGCGGTCTCGAGTAAACAAATTTTCCTAATCTTTCTGTTCAAGCGCCATCTAC | 0.497
GATGATTGTTCTCCCAGCTGATGAATTCTAGGGCTCGAGTAAACAAATTTTCCTAATCTTTCTGTTCAAGCGCCATCTAC | 0.259
GATGATTGTTCTCCCAGCTGATGAATTTAACAACTCGAGTAAACAAATTTTCCTAATCTTTCTGTTCAAGCGCCATCTAC | 0.454
GATGATTGTTCTCCCAGCTGATGAATTGGCCAGGTCGAGTAAACAAATTTTCCTAATCTTTCTGTTCAAGCGCCATCTAC | 0.186
GATGATTGTTCTCCCAGCTGATGAATTACAACCTTCGAGTAAACAAATTTTCCTAATCTTTCTGTTCAAGCGCCATCTAC | 0.474
GATGATTGTTCTCCCAGCTGATGAATTCTTTTAGTCGAGTAAACAAATTTTCCTAATCTTTCTGTTCAAGCGCCATCTAC | 0.266
GATGATTGTTCTCCCAGCTGATGAATTGGTAGGGTCGAGTAAACAAATTTTCCTAATCTTTCTGTTCAAGCGCCATCTAC | 0.794
GATGATTGTTCTCCCAGCTGATGAATTGGCGCAGTCGAGTAAACAAATTTTCCTAATCTTTCTGTTCAAGCGCCATCTAC | 0.577
GATGATTGTTCTCCCAGCTGATGAATTTCGAGTCTCGAGTAAACAAATTTTCCTAATCTTTCTGTTCAAGCGCCATCTAC | 1.07
GATGATTGTTCTCCCAGCTGATGAATTCTGTCTGTCGAGTAAACAAATTTTCCTAATCTTTCTGTTCAAGCGCCATCTAC | 1.04
GATGATTGTTCTCCCAGCTGATGAATTAATCAAGTCGAGTAAACAAATTTTCCTAATCTTTCTGTTCAAGCGCCATCTAC | 0.258
GATGATTGTTCTCCCAGCTGATGAATTCCGTAGGTCGAGTAAACAAATTTTCCTAATCTTTCTGTTCAAGCGCCATCTAC | 0.424
GATGATTGTTCTCCCAGCTGATGAATTCGACATATCGAGTAAACAAATTTTCCTAATCTTTCTGTTCAAGCGCCATCTAC | 0.66
GATGATTGTTCTCCCAGCTGATGAATTATCGAGCTCGAGTAAACAAATTTTCCTAATCTTTCTGTTCAAGCGCCATCTAC | 0.268
GATGATTGTTCTCCCAGCTGATGAATTATGGATTTCGAGTAAACAAATTTTCCTAATCTTTCTGTTCAAGCGCCATCTAC | 0.452

— paper PMC12820563
